Laboratory results published in the supplement of paper PMC11417369.
± gives the standard deviation of the averaged measurements. Some of the results follow.

test system: PfAP2-EXP AP2 domain (GST-tagged); experiment: gcPBM binding intensity (ln(normalized median fluorescence intensity)); higher = stronger DNA binding
Method in brief: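 An Agilent 4 × 180k array carrying primer-extended double-stranded 36-bp intergenic genomic probes and negative controls received GST-tagged P. falciparum DNA-binding domains expressed in E. coli, about 25 μg on average, for 1 h. The binding buffer contained 1× PBS, 1% milk, 0.2 mg/ml BSA, 0.5% salmon testes DNA and 0.03% Triton X-100. Binding intensity is the top Masliner-normalised natural-log median intensity across replicate spots of either probe orientation, read after Alexa488 anti-GST antibody staining and a 488 nm scan.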

Sequence | gcPBM binding intensity (ln)
AAAAAAAAAAGAAACACACACATTTGTATATAATAT [CACACA_site2078] | 8.66 ± 0.44
TTTTATATAAAATCGTGTACATACCATTTCCTATTA [XGTACX_site5159] | 8.86 ± 0.23
AAATAATAAAAAAAATGTACACGTAAATATTATATT [XGTACX_site8125] | 8.88 ± 0.32
CATATAAAAATGTGCACACACACACCCATATATATT [CACACA_site1526] | 8.76 ± 0.15
AAAATTAATAAATAAACACACATATATATATATATA [CACACA_site2598] | 10.1 ± 0.44
GTGAAATATGCAAACACACACGAGAAAAATGTATAT [CACACA_site7488] | 8.93 ± 0.57
TTTTTGCCATATTACACACACACATGTAAACCCCCT [CACACA_site1647] | 9.78 ± 0.6
CAAAACAAAACGTATGCACACAATTAATATATTAAA [CACACA_site3405] | 8.83 ± 0.42
AACCCCGTGGAAATATGTACATATAAATATATAAAT [XGTACX_site2094] | 9.29 ± 0.47
TAAATAAGCACATACACACATACATACATACATAAA [CACACA_site4017] | 8.71 ± 0.52
AGAGTTCTCATATGCACACAAAAAACTTTCATTTAT [CACACA_site45] | 8.41 ± 0.25
TATTTTTTTCTTACATACTAATTTGGTACTCACATA [TGCATGCA_negctrl_site81] | 8.72 ± 0.43
AAATAAATCTTATGCACACAAATAATTAATTAAACA [CACACA_site1693] | 8.61 ± 0.31
ATAAAATGATAAATTTGTACACAAAAAAAAAAAAAA [XGTACX_site964] | 8.33 ± 0.62
AAAATAAAATATTTCTGTACTTATAACTATTCTATA [XGTACX_site8007] | 8.29 ± 0.33
GGGTATACAAATAAACGTACAAACTCATAAAAAAAA [XGTACX_site3191] | 8.58 ± 0.57
CATATATAACAATTCTCACACATAAAAAAAAAAAAT [CACACA_site4564] | 8.54 ± 0.57
TTTTTATGGTAAATAAAAATATCTCCCTCCTTAATT [CACACA_negctrl_site1352] | 8.14 ± 0.49
TAATAATTTATAATAGTGCATTTGATTTTAAAAATA | 8.23 ± 0.21
TTAAAAAAATATAATACACACCAAAAATATGCACAT [CACACA_site5209] | 8.85 ± 0.35
TCTTTTTAAACTAATAGTACATATATATTAATAAAT [XGTACX_site4217] | 8.27 ± 0.29
ATTTACATAAATTGCATATATCGATGTAAATAAATA [CACACA_negctrl_site1150] | 8.48 ± 0.52

Sequence | gcPBM binding intensity (ln)
CATTTATTTTTGTTCTGTACATAAAGATGAACAAAA [XGTACX_site6797] | 8.48 ± 0.41
ATATATATATATATATGTACATATATTTATTTATTG [XGTACX_site6267] | 10.2 ± 0.3
AATGTTTATTAACATTGTACTTATAATATGTCACAA [XGTACX_site2974] | 8.38 ± 0.11
AATAATAAAGATCAATGTACATAATAAAAAAAAAAA [XGTACX_site2692] | 8.7 ± 0.46
TATCATGGGTGTATTTCACACACGGATAATCATTTA [CACACA_site8211] | 8.29 ± 0.29
CACATATAAATATTAACACACATAATGAGTTATATA [CACACA_site7316] | 8.18 ± 0.41
TTATTAAGTAAATCACATTTAATTTTTTTTTTTTTT [CACACA_negctrl_site1280] | 7.84 ± 0.2
AAGAAAAAAAAAAAAAGTACATGCAATATGGATCTT [XGTACX_site3106] | 8.69 ± 0.071
TTATACCATATTTATAGTACGTACAAATAAATCAAT [XGTACX_site4975] | 8.67 ± 0.11
AAACAACATATATTAATATGTACATATATATAGATA [GTGCAC_negctrl_site229] | 8.55 ± 0.34
AATAATTGTTAAAGCTGTACAATACTTATATAAGAA [XGTACX_site5729] | 8.7 ± 0.48
TTTTTTTTTTTTGTAACACACAATAATATAACATTA [CACACA_site3411] | 8.43 ± 0.4
TTTTTATTGTTATAGTTATAATATATTATTTGATTA [XGTACX_negctrl_site27] | 8.44 ± 0.4
TATCCTAACTTTAGATGTACACAAATAAAAAAAAAA [XGTACX_site4491] | 8.41 ± 0.4
CCATATAAAATATAAAAACACACGTATATATACATA [CACACA_site1511] | 8.66 ± 0.59
TGTACATATATATAGATATATATAGATATATATATA [CACACA_negctrl_site1678] | 9.41 ± 0.099
ACAAAATGTAGAAAATGTACAAAATTAACAAAAGAA [XGTACX_site5019] | 9.16 ± 0.64
ATTCAATCTTTTAATACACACAATTTATTTCAAAAC [CACACA_site835] | 8.4 ± 0.4
AAATAATGGTTAGCTACACACAAAGCATTTTTTGAA [CACACA_site1016] | 8.38 ± 0.56
TTTTAAAAAGATCATTAAAAAAAAAAAAAGAACAAA [CACACA_negctrl_site528] | 8.53 ± 0.41
ATAATATAACAATACGCACACGTATACAAAAAAAAA [CACACA_site5703] | 8.63 ± 0.3
TTGTATATATTTATATGTACATATATTACTTTTGCT [XGTACX_site2449] | 8.44 ± 0.38

Sequence | gcPBM binding intensity (ln)
TGTCTTGTAAATTATTGTACTATTTAAAGTATACAA [XGTACX_site7864] | 8.41 ± 0.3
AAAATACAAACAAGTGGTACTGTTTATAAATGGTTG [XGTACX_site1503] | 8.3 ± 0.31
TTTTTTTTTTGAAGTGCATGTTACGATGAAAAAAAA [TGCATGCA_site64] | 8.81 ± 0.33
GTATATTAATAAACATGTACACAATTTATTTATATT [XGTACX_site1012] | 8.52 ± 0.35
TTTTTTTTTAAATGTTGTACATTATATTTGTGTATA [XGTACX_site8354] | 8.44 ± 0.33
ACATATAAAATGATGCGTACATATTTGATCATATAC [XGTACX_site153] | 8.86 ± 0.57
CTAAATAACTTAAGGTGTACGTTTCCAATAAAAAAA [XGTACX_site1742] | 8.34 ± 0.34
TGTAGCCTGGAGAAGAGTACATAGTATCTGGTAGCT [XGTACX_site4943] | 8.61 ± 0.49
CGTATGTGCGGACATGCATGCAATATACAAGAAAAA [TGCATGCA_site145] | 10.2 ± 0.28
TTTTTTTTTACTGCATGTACTTGATGTAAATAAATT [XGTACX_site3045] | 8.85 ± 0.32
AATGGAAATTTTTCTTGTACACATATATGACATGTT [XGTACX_site1691] | 8.62 ± 0.39
AATATGACGTAGTGGTGTACACACATGGTACCTTTA [XGTACX_site3147] | 9.05 ± 0.36
TTAGAACTATTTTATACATGCAGTTATTTAATACTT [TGCATGCA_site1039] | 8.65 ± 0.21
TTATAAATATAATTTTGTACATATATATATATATAC [XGTACX_site5064] | 8.29 ± 0.3
AAAAGATAATTATGCACACACACACCCCCACCCAAC [CACACA_site2570] | 10.67 ± 0.099
TATAGAATAATCTATAAACACACAAACACAACAAAA [CACACA_site9374] | 8.96 ± 0.45
CACGCACGCAGACACACACACACACGCACATATATA [CACACA_site6303] | 8.74 ± 0.44
ACAACAATTCACTTGATGCACTAACCAAAAAAATAA | 8.69 ± 0.26
ACATATATTTTTTTTTGTACATATAAATATATATAT [XGTACX_site6491] | 9.04 ± 0.11
AAAAAAATAATCATCACACACGGAGAATGTCCAATA [CACACA_site5305] | 8.49 ± 0.56
ATATATTTTCCTTCAAGTACACATATAAATGTGTAT [XGTACX_site6633] | 8.64 ± 0.33
ATTAAAATATAAGTCACACATATATATATATATATA [CACACA_site6145] | 10.2 ± 0.33

Sequence | gcPBM binding intensity (ln)
TATTTTTTTTTATTTTTTTTTATTTTGTTTTTTTAT [TGCATGCA_negctrl_site315] | 8.21 ± 0.53
AATATAATAATATTTTGTACATATCCTATGTATGAG [XGTACX_site8601] | 8.43 ± 0.32
AACGTAAAACATATCTATCAAAATAAATCATTAATC [TGCATGCA_negctrl_site68] | 8.44 ± 0.35
ATGAATACAAAATTATACAAAATTATCAAAAGTATG [CACACA_negctrl_site1453] | 8.38 ± 0.35
ATACATAAATATATATGTACATATATATATATATAT [XGTACX_site1055] | 9.98 ± 0.42
TGCAGTCTGGAGAAACGTACATAGTATCTGGTAGCT [XGTACX_site4937] | 8.78 ± 0.41
AAAATATATTTAAATTGTACACGTTACCATAACAAT [XGTACX_site2598] | 8.63 ± 0.33
CTTTTTATTTAGAACACACACAAAAAAAAAAAAAAA [CACACA_site1761] | 8.19 ± 0.46
ATATATTAATAATTTTGTACGCATTTCCTTTTTATT [XGTACX_site1638] | 8.93 ± 0.46
AAAAAAAAAAAAAAATGTACAAATAAAGAAATATGA [XGTACX_site4371] | 8.64 ± 0.69
GAAAATATTTCCGTATGTACTTATTTTAGTCTACTA [XGTACX_site471] | 8.62 ± 0.57
AATATTTTCTTGTACGCATGCACATCCAAATTATAT [TGCATGCA_site873] | 9.84 ± 0.33
TGACCTGTTCAGGTAACACACATATAAACACATACA [CACACA_site4186] | 8.8 ± 0.43
GTGTATAGAATGGTTTCTTTTAAGGTTTTTATTTTT [CACACA_negctrl_site564] | 8.57 ± 0.42
AGGTTCTTTTTAAATGGTACACATAATTTGAAGATA [XGTACX_site400] | 8.47 ± 0.26
TCTTAAAAGGGGAATGGAATGGAGAAAATGAAATAA [GTGCAC_negctrl_site30] | 8.71 ± 0.54
ATACCCACTTAAAATACACACACACCGAAAAAAAAA [CACACA_site8867] | 8.61 ± 0.61
AATAAGAGGATACATTGTACATAAAAAAAAAAAATA [XGTACX_site1815] | 8.67 ± 0.48
TTTTGAAGCTTTAAAACATATATATATATATATATA [CACACA_negctrl_site184] | 10.3 ± 0.4
AGCAAAACAAAAAAATTAAAATTAACATATAATCAT [GTGCAC_negctrl_site393] | 8.44 ± 0.2
TATTGTTCTTATTTAGTGCATATATAATATAATATA [GTGCAC_site9827] | 8.78 ± 0.35
ATGTTCTTATTATTGGTGCAAGAATACACAAGAAAA | 8.78 ± 0.23
